Results from PubChem BioAssay AID2100 (National Center for Advancing Translational Sciences (NCATS), 2009).
About 1,200 (0.4%) of roughly 300,000 compounds were called active. The shares of active, inactive and inconclusive entries below differ from those in the screen. The call rests on the fitted dose curve; in most records, active means well fitted inhibition curve with a large enough effect; inconclusive means small, poorly fitted or top-dose-only effect, or another doubt; inactive means no such curve, though single readings can be large or run the other way. Potencies beside an inconclusive call are fits to weak or partial responses and may not hold up.

Target: Lysosomal alpha-glucosidase (Homo sapiens) (UniProt P10253)
Experiment: qHTS Assay for Inhibitors and Activators of Human alpha-Glucosidase Cleavage of Glycogen;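 on activity change, negative = inhibition: 0% = full enzyme reaction and -100% = no-enzyme basal signal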
Settings: recombinant GAA, glycogen substrate, Amplex Red glucose oxidase fluorescence; activity change, negative = inhibition: at 76.4 µM (top of the series) unless noted
How it was run: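 Recombinant human alpha-glucosidase (4 nM final) hydrolysed bovine liver glycogen (30 ug) for 40 min at 37 C in pH 5.0 citrate/phosphate with 0.01% Tween-20. Released glucose detected by glucose oxidase/Amplex Red, Ex 573/Em 610 nm. Compounds up to 77 uM; AC50 from Hill fits.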
Potency means the concentration at half of the fitted maximal effect.

| SMILES | activity change, negative = inhibition | Potency |
| --- | --- | --- |
| Cc1ccc(-c2nnc(SCC(=O)N/N=C/c3ccccc3C(=O)O)n2-c2ccc(Cl)cc2)cc1 | inactive: -3.43% |  |
| Cc1ccsc1C=Nc1ccc(O)cc1 |  | inconclusive: 44.7 µM [activator, single point] |
| c1cnn(-c2cc(N3CCOCC3)ncn2)c1 | inactive: 0.521% |  |
| CCCCn1cnc2cc(NCc3ccccc3Cl)ccc21 |  | inconclusive: 12.6 µM [inhibitor, partial curve, poor fit] |
| COc1ccc(Nc2oc(COc3ccc(OC)cc3)nc2C#N)cc1 |  | inconclusive: 35.2 µM [inhibitor, single point] |
| COc1cc(CNCc2ccco2)cc(OC)c1O |  | inconclusive: 14.1 µM [inhibitor, partial curve] |
| CCN=c1scc(C)n1/N=C/c1ccc(O)c(O)c1O |  | active: 15.8 µM |
| COc1cccc(-c2nc(CS(=O)(=O)CC(=O)N3CCN(c4cc(C)ccc4C)CC3)c(C)o2)c1 | inactive: -17% [at 76.3 µM] |  |
| Cc1cccc(C)c1Nc1c(-c2ccccn2)nc2c(C)cccn12 |  | inconclusive: 12.6 µM [inhibitor, partial curve] |
| COc1ccc(CCNC(=O)c2nc(-c3ccc(Cl)cc3)n3c2CCCCC3)c(OC)c1 | inactive: 6.88% [at 76.3 µM] |  |
| CCCc1ccc(O)c(N=Cc2cc(Br)cc(OCC)c2O)c1 |  | inconclusive: 11.1 µM [inhibitor, partial curve] |
| CN1CCN(S(=O)(=O)c2ccc3c(c2)NC(=O)C2CCCN32)CC1 (stereo unspecified) |  | inconclusive: 22.4 µM [inhibitor, partial curve] |
| O=c1c2c3c(sc2nc2sc(CN4CCCCC4)cn12)CCCC3 | inactive: 2.31% |  |
| C/C(=N\N(C)C)c1ccc(OCCOc2ccc([N+](=O)[O-])cc2)cc1 |  | inconclusive: 50.1 µM [inhibitor, single point] |
| CC(=O)OC1COC(N2CCc3ccccc32)C(OC(C)=O)C1OC(C)=O (stereo unspecified) |  | inconclusive: 39.8 µM [inhibitor, partial curve] |
| S=C(Nc1ccccc1Cl)N1CCC(c2ccccc2)C1 (stereo unspecified) |  | inconclusive: 11.2 µM [inhibitor, single point] |
| Cc1ccc(CNCc2ccccc2Cl)s1 | inactive: -13.7% [at 76.3 µM] |  |
| COc1ccc(Nc2cc(C)c3c(O)cccc3n2)cc1 |  | active: 22.4 µM |
| O=C(O)CC/C(=N\NC(=O)c1ccncc1)c1ccccc1 |  | inconclusive: 28.2 µM [inhibitor, partial curve] |
| CC(C)Oc1ccc(CCC(=O)NNC(=S)Nc2ccccc2)cc1 |  | inconclusive: 35.5 µM [inhibitor, single point] |
| COc1ccccc1NC1=C(N2CCCCC2)C(=O)c2ccccc2C1=O | inactive: -5.06% |  |
| O=C(CCCO)NNc1c2ccccc2nc2ccccc12 |  | inconclusive: 20 µM [inhibitor, partial curve] |
| COCc1cc(CN2CCN(C)CC2)c(O)c2ncccc12 |  | inconclusive: 24.9 µM [activator, partial curve] |

| SMILES | activity change, negative = inhibition | Potency |
| --- | --- | --- |
| CCOc1ccc(N2CC(=O)SC2=S)cc1 |  | inconclusive: 11.2 µM [inhibitor, full curve, poor fit] |
| Cc1ccc(S(=O)(=O)n2c(N)nc3ccccc32)cc1 |  | inconclusive: 3.55 µM [inhibitor, full curve, poor fit] |
| CCN1CSC(=S)N(Cc2ccc(OC)cc2)C1 |  | inconclusive: 15.7 µM [inhibitor, partial curve] |
| O=C(NNc1cc(Cl)ccc1Cl)c1cccnc1Cl |  | inconclusive: 5.01 µM [inhibitor, full curve] |
| COc1cccc2c1OC[C@@H](CO)[C@H]2N(C)C(=O)Nc1ccc(Cl)cc1 |  | inconclusive: 39.8 µM [inhibitor, partial curve] |
| Cc1ccc(-c2nnn(CC(=O)N(Cc3cccs3)C(C(=O)NC3CCCC3)c3ccncc3)n2)cc1 (stereo unspecified) |  | inconclusive: 39.5 µM [inhibitor, single point] |
| Oc1ccccc1N1CCN(c2ncccn2)CC1 |  | active: 7.88 µM |
| Cc1nn(CC(=O)O)c(C)c1N |  | inconclusive: 25.1 µM [inhibitor, partial curve] |
| O=C(CSC1=Nc2ccccc2C2CC=NN12)Nc1ccc(F)cc1Cl (stereo unspecified) |  | inconclusive: 35.5 µM [activator, single point] |
| CN=c1scc(-c2ccco2)n1/N=C/c1ccc(O)c(O)c1 |  | active: 5.58 µM |
| COc1ccc2ccccc2c1/C=N/Nc1cccc(C(=O)O)c1 |  | inconclusive: 50.1 µM [inhibitor, single point] |
| Oc1cccc(/C=N/N=C/c2cccc(O)c2O)c1O |  | inconclusive: 6.31 µM [inhibitor, single point] |
| NC(=S)Cc1nc(-c2ccc(Cl)cc2)cs1 |  | inconclusive: 35.2 µM [inhibitor, single point] |
| COc1ccc(-c2nc3cnccn3c2Nc2ccc(C)cc2)cc1 |  | active: 7.08 µM |
| COc1ccc(OC)c(C2Nc3c(C)cc(C)cc3-c3cc(C)nn32)c1 (stereo unspecified) |  | inconclusive: 28.2 µM [inhibitor, partial curve] |
| S=c1[nH]nc(COc2ccccc2)n1/N=C/C=C/c1ccco1 |  | inconclusive: 6.31 µM [inhibitor, full curve, poor fit] |
| Cc1cc(C)n(-c2nc3c(c(=O)[nH]c(=O)n3C)n2Cc2cccc(Br)c2)n1 | inconclusive: 37.6% [activator] |  |
| Cn1c(-c2ccc3c(c2)OCO3)cnc1NCc1ccccc1 |  | inconclusive: 39.8 µM [inhibitor, partial curve] |
| CCOc1cc(C2NC(=O)NC(C)=C2C(=O)OCC2CCCCC2)ccc1O (stereo unspecified) |  | inconclusive: 28.2 µM [inhibitor, single point] |
| Cc1ccnc(NC(c2ccncc2)c2c(C)[nH]c3ccccc23)c1 (stereo unspecified) |  | inconclusive: 44.3 µM [activator, single point] |
| O=C(NC(=S)Nc1ccccc1N1CCCC1)c1cccs1 |  | inconclusive: 15.7 µM [inhibitor, partial curve] |
| O=C(O)c1cccc2c1-c1ccccc1/C2=N\Nc1ccccc1 |  | inconclusive: 7.94 µM [inhibitor, full curve] |
| NNC(=O)CCCCCCCCCCOCCCCO |  | inconclusive: 28.2 µM [inhibitor, single point] |
